In the supplement of paper PMC5919970:
Where a name gives a salt, the structure may show the parent alone. The full ranking holds about 2,000 compounds; the median of “fractional viability relative to vehicle” is about 0.92, and the lowest 2% start at about 0.11. The list shows a part of the results.

Tested on: TYKNU
Test: fractional viability relative to vehicle; TYKNU is a high-grade serous ovarian cancer line; higher = less growth inhibition
Conditions: 72 h, genotype: OPA1 knockout (sgOPA1 #2)
Summary of the method: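 Drug treatment lasted 72 h, with cells grown at 37 °C in 5% CO2 in RPMI 1640 supplemented with 10% FBS. Beforehand, TYKNU control cells or their lentiCRISPRv2 knockout derivatives had been seeded at 500 cells per well into drug-stamped 384-well plates carrying a ~2100-compound library at 2 or 10 μM, in duplicate. Viability came from Cell Titer Glo luminescence, with averaged duplicate treatment wells normalised to duplicate control wells in the same plate position.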

| Compound | fractional viability (2uM) | fractional viability (10uM) |
| --- | --- | --- |
| CC(C)(CO)C(O)C(=O)NCCC(=O)O [Calcium D-Panthotenate] | 0.75 | 0.792 |
| CC[C@H](CO)Nc1nc(NCc2ccccc2)c2ncn(C(C)C)c2n1 [Roscovitine (Seliciclib,CYC202)] | 1.14 | 0.913 |
| Cc1ccc(NC(=O)c2cccc(C(C)(C)C#N)c2)cc1Nc1ccc2ncn(C)c(=O)c2c1 | 0.463 | 0.392 |
| OCCN(CCO)c1nc(N2CCCCC2)c2nc(N(CCO)CCO)nc(N3CCCCC3)c2n1 [Dipyridamole] | 1.1 | 0.942 |
| CC[C@@H](C)Nc1cc(C(=O)N[C@H]2C[C@H]3CC[C@@H](C2)N3c2ccc(C(=O)C3CC3)cn2)c(C)cc1C(N)=O | 0.549 | 0.565 |
| Cc1ccc(F)c(NC(=O)Nc2ccc(-c3cccc4[nH]nc(N)c34)cc2)c1 [Linifanib (ABT-869)] | 1.31 | 0.92 |
| C[C@]12CC[C@@H]3c4ccc(OC(=O)c5ccccc5)cc4CC[C@H]3[C@@H]1CC[C@@H]2O [Estradiol Benzoate] | 0.897 | 0.768 |
| CC(C)(C)[N+]([O-])=Cc1ccc(S(=O)(=O)O)cc1S(=O)(=O)O | 0.876 | 0.746 |
| O=C(/C=C\n1cnc(-c2cc(C(F)(F)F)cc(C(F)(F)F)c2)n1)N1CC(F)(F)C1 | 0.205 | 0.149 |
| CN1CCN(C(c2ccccc2)c2ccccc2)CC1 [Cyclizine 2HCl] | 1.01 | 0.77 |
| CC(C)OC(=O)C1=CN(C(=O)c2ccc(F)c(F)c2)CC(C)(C)c2c1[nH]c1ccccc21 | 0.841 | 0.904 |
| COc1cc2ncnc(Nc3cccc(Cl)c3)c2cc1OC [AG-1478 (Tyrphostin AG-1478)] | 1.42 | 0.294 |
| O=c1oc2cc(O)ccc2s1 [Tioxolone] | 1.01 | 0.873 |
| C[C@@H]1C[C@H]2[C@@H]3CCC4=CC(=O)C=C[C@]4(C)[C@@]3(Cl)[C@@H](O)C[C@]2(C)[C@@]1(OC(=O)c1ccco1)C(=O)CCl [Mometasone furoate] | 1.04 | 0.409 |
| CCOC(=O)[C@H](CCc1ccccc1)N[C@@H](C)C(=O)N1C(=O)N(C)C[C@H]1C(=O)O [Imidapril HCl] | 0.918 | 1.26 |
| CS(=O)(=O)c1ccc(-c2nnc(/C=C/c3nnc(-c4ccc(C#N)cc4)o3)n2-c2ccccc2Cl)nc1 | 1.11 | 1.03 |
| c1coc(CNc2ncnc3[nH]cnc23)c1 [Kinetin] | 0.862 | 0.56 |
| C[C@]12CCC3=C4CCC(=O)C=C4CC[C@H]3[C@@H]1CC[C@@]2(O)CC#N [Dienogest] | 1.11 | 0.961 |
| NC(=O)c1ccc(I)c([N+](=O)[O-])c1 [Iniparib (BSI-201)] | 1.14 | 0.945 |
| O=C(O)c1cc(/N=N/c2ccc(S(=O)(=O)Nc3ccccn3)cc2)ccc1O [Sulfasalazine] | 1.1 | 0.957 |
| C/C(=C\C(=O)OCCCCCCCCC(=O)O)C[C@@H]1OC[C@H](C[C@@H]2O[C@H]2[C@@H](C)[C@H](C)O)[C@@H](O)[C@H]1O [Mupirocin] | 1.36 | 0.971 |
| COc1ccc(C2=N[C@@H](c3ccc(Cl)cc3)[C@@H](c3ccc(Cl)cc3)N2C(=O)N2CCNC(=O)C2)c(OC(C)C)c1 [Nutlin-3a] | 0.481 | 0.367 |

| Compound | fractional viability (2uM) | fractional viability (10uM) |
| --- | --- | --- |
| COc1ccc(C2=N[C@@H](c3ccc(Cl)cc3)[C@@H](c3ccc(Cl)cc3)N2C(=O)N2CCNC(=O)C2)c(OC(C)C)c1 [Nutlin-3] | 0.858 | 0.623 |
| CN/C(=N\CCSCc1nc[nH]c1C)NC#N [Cimetidine] | 1.19 | 0.817 |
| C[C@@H](O[C@H]1OCCN(Cc2n[nH]c(=O)[nH]2)[C@H]1c1ccc(F)cc1)c1cc(C(F)(F)F)cc(C(F)(F)F)c1 [Aprepitant] | 1.15 | 0.832 |
| Cc1cn(-c2cc(NC(=O)c3ccc(C)c(Nc4nccc(-c5cccnc5)n4)c3)cc(C(F)(F)F)c2)cn1 [Nilotinib (AMN-107)] | 1.67 | 1.65 |
| NC(=O)c1ccc(-c2nc(-c3ccccn3)c(-c3ccc4c(c3)OCO4)[nH]2)cc1 | 1.28 | 1.44 |
| CCCNC(=O)Nc1ccc(Oc2ncnc3cc(OC)c(OC)cc23)cc1Cl | 1.27 | 1.2 |
| CC(=O)c1c(C)c2cnc(Nc3ccc(N4CCNCC4)cn3)nc2n(C2CCCC2)c1=O | 1.28 | 0.956 |
| CCN1C[C@H](C)n2c(c(O)c3c(=O)n(Cc4ccc(F)c(Cl)c4)nc(C(=O)NC)c32)C1=O | 0.944 | 1.06 |
| CC(C)(C)c1ccc(S(=O)(=O)/C=C/C#N)cc1 | 0.357 | 0.0658 |
| CNC(=O)c1cc(Oc2ccc3nc(N[C@@H]4CCCC[C@H]4O)sc3c2)ccn1 | 0.831 | 0.74 |
| Cn1cc(/C=C2\C(=O)Nc3cccnc32)c2ccccc21 | 1.21 | 1.14 |
| CNC(=O)c1ccc(Nc2ncc(C(F)(F)F)c(NCc3nccnc3N(C)S(C)(=O)=O)n2)cc1 | 0.707 | 0.591 |
| Cc1ccc(NC(=O)C2(c3ccc4c(c3)OC(F)(F)O4)CC2)nc1-c1cccc(C(=O)O)c1 [VX-809 (Lumacaftor)] | 0.996 | 1.03 |
| OCCOc1ccc(/C(=C(/CCCl)c2ccccc2)c2ccccc2)cc1 [Ospemifene] | 0.854 | 0.735 |
| CC(C)OC(=O)C(C)(C)Oc1ccc(C(=O)c2ccc(Cl)cc2)cc1 [Fenofibrate] | 1.16 | 1.14 |
| O=S(=O)(O)Oc1ccc(C(c2ccc(OS(=O)(=O)O)cc2)c2ccccn2)cc1 [Sodium Picosulfate] | 0.966 | 0.856 |
| CCn1c(-c2nonc2N)nc2c(C#CC(C)(C)O)ncc(OC[C@H]3CCCNC3)c21 | 1.01 | 0.698 |
| Cc1cc2c(s1)Nc1ccccc1N=C2N1CCN(C)CC1 [Olanzapine] | 1.07 | 0.807 |
| CN1C(=O)C(Cc2c[nH]c3ccccc23)NC1=S (stereo not drawn) [Necrostatin-1] | 0.807 | 0.811 |
| CCC[C@H](N[C@H]1CCc2cc(F)cc(F)c2C1)C(=O)Nc1cn(C(C)(C)CNCC(C)(C)C)cn1 | 0.786 | 0.87 |
| Cc1cnc(-c2ccccc2C(C)C)nc1NCc1ccc(-n2ccnn2)cc1 | 0.996 | 0.759 |
| Nc1ccc(-c2ccc3ncc4ccc(=O)n(-c5cccc(C(F)(F)F)c5)c4c3c2)cn1 [Torin 2] | 0.36 | 0.363 |
